For 167 variants, self-cleavage results are on record in the RNAGym collection of RNA variant scans (doi:10.7554/elife.90254).

Read counts are not given, so values of variants with three or more changes are uncertain.

First the molecules themselves.
B1: LINE1-mini (parent)
chain: GGCAGAGCUCAACACAGCGUGGCAAAGUGGCUGUGGCUAGACUGCC

The series covers variants of B1. The series is described as follows: self-cleavage, relative activity (ratio to wild type); higher = more cleavage; in vitro, sequencing; the parent is a self-cleaving ribozyme.
As for C10G U32C G36A A41G, the self-cleavage turned out to be 0.02.
The figure for C10A G36U U43C is 0.02; for C10U A16G C37G A41C it is 0; for C10A G19U U32C G40C it is 0.01.
With C10A G21A U28A G40A, the self-cleavage stood at 0.
The same measure for C10G U34A G35U G36U: 0.02; for C10A C15A G21C G40U C46A: 0.02.
The same measure for C10G A11C A24C A26G C45G C46A: 0.01; for C10G A14G G35U: 0.02; for C10U A14G C31A G36C: 0.02.
The figure for C10A G21A C46G is 0.09.
Turning to C10A C15A G22C G27A U28A A39G, the self-cleavage amounted to 0.01.
For the variant C10G G17U C42U, the self-cleavage is 0.04.
The same measure for C10U A12G U20G G21U C45A: 0.03.
As to C10A G36A C37U U43A, the self-cleavage was determined as 0.
The figure for C10G A26C G36U U43C is 0.01; for C10A G35C A39C it is 0; for C10U A14U U38A it is 0.03.
For C10A C37G U43C, the self-cleavage was found to be 0.
As to C10G G40U C46A, the self-cleavage worked out at 0.01.
C10U A11C U34G G44C: the self-cleavage turned out to be 0.
In the case of C10G A14C G19U A24C G35A, the self-cleavage was determined as 0.01.
Consider C10A U20G G30U, for which the self-cleavage is 0.01.
The figure for C10A U20C G27U is 0.04.
C10A G22U G29U G33A G36U: the self-cleavage was determined as 0.01.
The same measure for C10G G17U G27A C31A U32G G40C: 0.01; for C10U A16G A26G C37A: 0.05; for C10G G22A A41U: 0.07.
In the case of C10U A24U U28C, the self-cleavage came out at 0.11.
The figure for C10G G33U G35U is 0.03; for C10A U28G G35A it is 0.01; for C10U A24G G27C it is 0.06.
Take C10U A24G G27U: the self-cleavage worked out at 0.06.
For the variant C10G C13A G40C, the self-cleavage was 0.03.
The same measure for C10U A12U C13U: 0.07; for C10A U28G A39G G40A: 0.02; for C10G C13U G29C: 0.01.
With C10A G19A U38A, the self-cleavage was determined as 0.09.
Take C10G A24C C42U: the self-cleavage was determined as 0.04.
The same measure for C10A G30U U32G G44C: 0.02.
The figure for C10U A24C C31U G36U is 0.02; for C10G C13A U28C it is 0.02; for C10U A16C G27U C45U it is 0.06.
Turning to C10A U28C G30U, the self-cleavage was 0.04.
The same measure for C10G A16U G22A G30A U34A: 0.01; for C10A C15G G33A: 0.03; for C10G A12C A16U G44A C45U: 0.01.
For C10G G17C C18A G27C A41C C45A, the self-cleavage worked out at 0.
Take C10G A11C G22C: the self-cleavage came out at 0.02.
In the case of C10A G17C U28C U34C, the self-cleavage turned out to be 0.
The same measure for C10G A14U G19C: 0.01; for C10G C15U A25C A26C U28C: 0.02.
The same measure for C10G C13U A39C: 0.03.
The figure for C10G G19A G36C U38A is 0.02; for C10G C18U G21C it is 0.14.
In the case of C10A U20A U34C, the self-cleavage stood at 0.01.
The figure for C10G G29C G40A C45A is 0.01; for C10A C15U A25G C45G C46A it is 0.02; for C10G A11G G19U G29U it is 0.01.
Take C10G G35U C45G: the self-cleavage came out at 0.03.
With C10A C13U U28G C31U, the self-cleavage was 0.04.
Take C10A G27C A41U: the self-cleavage was 0.
The figure for C10A U28C G29C U32G C45A is 0.02; for C10G G36A U43G it is 0.01.
The same measure for C10A C13U G21C G27A: 0.01; for C10U A14U U28A: 0.34; for C10A C23A G36A: 0.04.
Consider C10G C13A G33U C45U, for which the self-cleavage was 0.01.
The same measure for C10G U34G G35A: 0.01.
The same measure for C10A U34G G40U: 0.02; for C10U A14G G29U C42G: 0.05; for C10A C37A A39C: 0.01.
For the variant C10A G30C G33C C37A, the self-cleavage was determined as 0.02.
The same measure for C10U A12G C23G A24C G27A G33A C37U: 0; for C10G A11U G36U A39U: 0.01.
The same measure for C10G G17C C23G: 0.08; for C10A C15G C23U G33A: 0.03.
C10A C18G U28C: the self-cleavage was 0.09.
The same measure for C10G G22C U38G G40A U43G: 0; for C10G G21U G22A G27C G35A C46G: 0.02; for C10A G19U G22U G27U U32G G40U: 0.
As for C10A C23A A25C, the self-cleavage was found to be 0.01.
On to C10A C23U A25C G29U C31U C45G, for which the self-cleavage was 0.
C10G A24G C31U U38G G44U: the self-cleavage amounted to 0.01.
The figure for C10U A16U G27A G36A G40A C45A is 0.02.
As for C10A G35U G36U A41U, the self-cleavage was 0.01.
In the case of C10A C42U C46A, the self-cleavage came to 0.02.
The figure for C10A C42U C45U is 0.09; for C10G U20A C23U G33U U43C C45A it is 0.01.
On to C10A G29C G30U, for which the self-cleavage was 0.02.
The same measure for C10G G19U U32G: 0.02.
The same measure for C10A G27U G35U G36U A39G: 0.01; for C10G A16C G40U C45G: 0.01.
The same measure for C10G G19U U28G A39U: 0.17.
In the case of C10A C13A G30U C46G, the self-cleavage amounted to 0.05.
The same measure for C10A C23A C42U: 0.04.
The figure for C10A C23A G29A C37U is 0.02.
The same measure for C10G U43A G44A: 0; for C10A C15A C18G: 0.03.
On to C10A C18G G19C U20C G27C G40A, for which the self-cleavage came out at 0.01.
On to C10U A16U G36U C37U, for which the self-cleavage was 0.02.
The same measure for C10A G17C G27A: 0.03.
The figure for C10A G17U G44C is 0.03; for C10A C18A G27C U34G it is 0.01.
On to C10A U34A U38G G40U U43A, for which the self-cleavage was found to be 0.02.
Consider C10A G36A U43C, for which the self-cleavage was found to be 0.05.
The figure for C10U A12U U32G G36U is 0.01; for C10U A12G U32C it is 0.02.
As for C10U A16U A24G G27C U38C, the self-cleavage was 0.02.
For C10U A12G C13U G19A, the self-cleavage came out at 0.05.
The same measure for C10U A24C C46A: 0.13.
The figure for C10U A12G C23G G33U C42G is 0.01; for C10G G27A G40A it is 0.01.
In the case of C10A G22C G36A, the self-cleavage stood at 0.05.
Regarding C10A C13U C18G G40A G44A, the self-cleavage stood at 0.04.
The same measure for C10G C23U A41U: 0.07.
As to C10A G36A C37A A39U, the self-cleavage was 0.01.
For the variant C10U A12C U20A C37A, the self-cleavage worked out at 0.
In the case of C10A C13U G29U G35U, the self-cleavage turned out to be 0.03.
The figure for C10A G35A U38C is 0.02.
The same measure for C10A U20C G21U C45A: 0.02; for C10G A26G G30A: 0.08.
Regarding C10G G21C A24U C37U, the self-cleavage was found to be 0.01.
The same measure for C10G C15G C23U: 0.03; for C10G A16G G27U U28A G29C: 0.02; for C10G C15A A26C: 0.02.
For the variant C10A G30U G44C, the self-cleavage amounted to 0.1.
The same measure for C10U A11C A16C A39C: 0; for C10A C13U C31U C42U: 0.05; for C10A G17A G29C C31A: 0.
As to C10A C42U G44C, the self-cleavage came to 0.03.
The same measure for C10G A11C A26C G35U C37U G40U: 0; for C10G C15A A16U C42U C46G: 0; for C10A G29A U43A: 0.01.
The figure for C10A G19U U20A is 0.01.
On to C10A G40U C46G, for which the self-cleavage was 0.01.
In the case of C10U A16U U20A U43A, the self-cleavage came out at 0.
The figure for C10G C18A A41C is 0.01; for C10G A11C C15U A24C U38G it is 0.02.
The figure for C10U A14G C15U G19A is 0.04; for C10A G19U C23U A24C it is 0.
Consider C10G C18G G33A, for which the self-cleavage stood at 0.01.
Regarding C10A C23U C31U U32C, the self-cleavage worked out at 0.03.
The figure for C10G G27U G36U U38C G44C is 0.
As for C10G C13A A26U G27U U43G, the self-cleavage came to 0.
The figure for C10G A11C C15G is 0.02; for C10U A12G C13U C18U it is 0.
The same measure for C10A C37A A41C: 0.02; for C10G G19U A41C: 0.03.
The same measure for C10A G17U G35A C45A: 0.03; for C10A U20A U38G: 0.02.
As to C10A C18U G21C A39G, the self-cleavage was 0.05.
The figure for C10A G21U G30A G35A is 0.03.
On to C10A G19A C23U G27C G33U, for which the self-cleavage worked out at 0.01.
The figure for C10A G21C G22A G27C G33U is 0; for C10A C13G U34G it is 0.02; for C10U A12U G33A G36A it is 0.02.
As for C10G G22C G29A U34G C45G, the self-cleavage was determined as 0.
For C10A C18G U32G C45G, the self-cleavage stood at 0.02.
The figure for C10G A14G C15U G22U G36C is 0.
As to C10U A14G G27U C31G, the self-cleavage was found to be 0.04.
The same measure for C10A C31G U32G A41U C42G: 0.01; for C10A G27U G40U: 0.05; for C10G U38G C46U: 0.02.
For C10U A12C G40A, the self-cleavage came to 0.01.
The same measure for C10G A26U C42U: 0.01; for C10A C37U A39U C45A: 0.01.
